The full ranking holds about 81,000 sequences; the median of “one-hybrid fitness for binding parS DNA” is about -0.17, and the highest 2% start at about 0.51. This is one part of the list.
B1: Caulobacter ParB omega fusion; a variant is named by its letters at X, in order, B8GW30 (parent)
chain: MESVVVGEPGMSEGRRGLGRGLSALLGEVDAAPAQAPGEQLGGSREAPIEILQRNPDQPRRTFREEDLEDLSNSIREKGVLQPILVRPSPDTAGEYQIVAGERAWRAAQRAGLKTVPIMVRELDDLAVLEIGIIENVQRADLNVLEEALSYKVLMEKFERTQENIAQTIGKSXSHVANXMRLLXLPDEVQSYLVSGELTAXHARAIAAAADPVALAKQIIEGGLSVRETEALARKAPNLSAGKSKGGRPPRVKDTDTQALESDLSSVLGLDVSIDHRGSTGTLTITYATLEQLDDLCNRLTRGI

Variants of: B1
Experiment: one-hybrid fitness for binding parS DNA (scaled: cognate 1, non-cognate 0); higher = stronger binding
Conditions: with parS DNA site
Method in brief: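 Fitness here means the log change in variant-to-wild-type read ratio between plasmids sequenced before and after selection. That scale was set so cognate equals 1 and non-cognate equals 0. The selection was a bacterial one-hybrid screen of Caulobacter ParB libraries, four specificity codons randomised, in E. coli USO carrying a HIS3 reporter with the site 19 bp from the promoter, grown 48 hours at 37°C on M9-minus-histidine with 0.1 mM IPTG and 5 mM 3-AT.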

Variant	one-hybrid fitness for binding parS DNA
PIRG	≤ 0.2
HVLV	≤ 0.2
PVHV	≤ 0.2
HPRS	≤ 0.2
EWPP	≤ 0.2
ADAV	≤ 0.2
IRSR	≤ 0.2
TFCT	≤ 0.2
AYAD	≤ 0.2
PGGL	≤ 0.2
ILQP	≤ 0.2
VARL	≤ 0.2
QDVY	≤ 0.2
CCSW	≤ 0.2
WSMR	≤ 0.2
HTPM	≤ 0.2
GVDG	≤ 0.2
QYDV	≤ 0.2
DGYC	≤ 0.2
QMMC	≤ 0.2
RRTI	≤ 0.2
HWSG	≤ 0.2
PWQG	≤ 0.2
GPVD	≤ 0.2
SEIW	≤ 0.2
MRWT	≤ 0.2

Variant	one-hybrid fitness for binding parS DNA
SVLC	≤ 0.2
SSLH	≤ 0.2
VADQ	≤ 0.2
RSMP	≤ 0.2
PHPG	≤ 0.2
YAAS	≤ 0.2
ALVC	≤ 0.2
TSWN	≤ 0.2
RWTR	≤ 0.2
TKGC	≤ 0.2
SLVC	≤ 0.2
RCRS	0.877
CFHS	≤ 0.2
VNDR	≤ 0.2
SFMN	≤ 0.2
HNDG	≤ 0.2
RRVT	0.607
TYMT	≤ 0.2
YYFF	≤ 0.2
AGNG	≤ 0.2
RRKE	≤ 0.2
QPHY	≤ 0.2
LCYS	≤ 0.2
FGGS	≤ 0.2
WAYG	≤ 0.2
TGRE	≤ 0.2

Variant	one-hybrid fitness for binding parS DNA
ALPD	≤ 0.2
TNVF	≤ 0.2
AMYC	≤ 0.2
PVQP	≤ 0.2
FVHC	≤ 0.2
MIIT	≤ 0.2
DAAF	≤ 0.2
EDLG	≤ 0.2
LAAF	≤ 0.2
QDVM	≤ 0.2
WGRT	≤ 0.2
DAPL	≤ 0.2
CVLK	≤ 0.2
KTVK	≤ 0.2
LADF	≤ 0.2
ELYS	≤ 0.2
MPPY	≤ 0.2
RPNW	≤ 0.2
SPMT	≤ 0.2
FMRS	≤ 0.2
FPLR	≤ 0.2
PCMI	≤ 0.2
QKWR	≤ 0.2
QAPC	≤ 0.2
QYCK	≤ 0.2
CSVY	≤ 0.2

Variant	one-hybrid fitness for binding parS DNA
VGLG	≤ 0.2
ERRI	≤ 0.2
HHTR	≤ 0.2
TDWG	≤ 0.2
GSSE	≤ 0.2
ENTV	≤ 0.2
PAGG	≤ 0.2
DKCT	≤ 0.2
HNHL	≤ 0.2
SGMC	≤ 0.2
PDRT	≤ 0.2
DTLK	≤ 0.2
PAYY	≤ 0.2
PACK	≤ 0.2
LVQC	≤ 0.2
LMKE	≤ 0.2
RAIH	≤ 0.2
KLMC	≤ 0.2
TLCL	≤ 0.2
RQQW	≤ 0.2
RHVA	0.499
QEYM	≤ 0.2
CQQC	≤ 0.2
CARG	≤ 0.2
VHAF	≤ 0.2
RDER	≤ 0.2

Variant	one-hybrid fitness for binding parS DNA
TMFV	≤ 0.2
TTVN	≤ 0.2
PNSW	≤ 0.2
LITL	≤ 0.2
TVIS	≤ 0.2
RIRP	≤ 0.2
DMGS	≤ 0.2
MKES	≤ 0.2
SRAF	≤ 0.2
DNYC	≤ 0.2
PKKM	≤ 0.2
VLIP	≤ 0.2
RCWM	0.405
GQSK	≤ 0.2
IVLI	≤ 0.2
NNVN	≤ 0.2
RLRY	0.645
WHYR	≤ 0.2
HVKR	≤ 0.2
TCLR	≤ 0.2
RRWG	0.906
SENS	≤ 0.2
KSHM	≤ 0.2
TLMG	≤ 0.2
TMQN	≤ 0.2
CTSG	≤ 0.2

Variant	one-hybrid fitness for binding parS DNA
WMCG	≤ 0.2
QQHC	≤ 0.2
GITS	≤ 0.2
WIST	≤ 0.2
QNRF	≤ 0.2
PKSD	≤ 0.2
MALT	≤ 0.2
RAPW	≤ 0.2
MTTY	≤ 0.2
NHES	≤ 0.2
HGTK	≤ 0.2
RAPN	≤ 0.2
NQEL	≤ 0.2
PREN	≤ 0.2
FKSG	≤ 0.2
GGCL	≤ 0.2
AGKT	≤ 0.2
QTEC	≤ 0.2
AYVT	≤ 0.2
TNHS	≤ 0.2
ATQR	≤ 0.2
AWHL	≤ 0.2
STPD	≤ 0.2

Reference: a collection of fitness landscapes (doi:10.1016/j.celrep.2020.107928)
